Out of some 340,000 compounds screened, about 6,900 (2%) were called active. No stated cut-off is given here; in the data, active means inhibition above about 30%; inactive means below that, where a call was filed. This is a selection; strong and weak results do not stand in their true shares. The source gives no active or inactive call for entries shown without one.
Biological target: D(2) dopamine receptor (Homo sapiens) (UniProt P14416)
Assay: HTS Assay for Allosteric Antagonists of the Human D2 Dopamine Receptor: Primary Screen for Antagonists; further: 0% is about no effect
Settings: HEK293 TREx D2 cells, calcium flux, dopamine EC80; at 10 µM; stronger effect = higher value
Outline: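 Compounds are added to dye-loaded, induced HEK293 T-REx cells coupled to calcium release via D2; after a 3 min kinetic read an EC80 dopamine stimulus is given and fluorescence is recorded for 3 more min.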

Chain of UniProt P14416 (P14416 whole entry, looked up): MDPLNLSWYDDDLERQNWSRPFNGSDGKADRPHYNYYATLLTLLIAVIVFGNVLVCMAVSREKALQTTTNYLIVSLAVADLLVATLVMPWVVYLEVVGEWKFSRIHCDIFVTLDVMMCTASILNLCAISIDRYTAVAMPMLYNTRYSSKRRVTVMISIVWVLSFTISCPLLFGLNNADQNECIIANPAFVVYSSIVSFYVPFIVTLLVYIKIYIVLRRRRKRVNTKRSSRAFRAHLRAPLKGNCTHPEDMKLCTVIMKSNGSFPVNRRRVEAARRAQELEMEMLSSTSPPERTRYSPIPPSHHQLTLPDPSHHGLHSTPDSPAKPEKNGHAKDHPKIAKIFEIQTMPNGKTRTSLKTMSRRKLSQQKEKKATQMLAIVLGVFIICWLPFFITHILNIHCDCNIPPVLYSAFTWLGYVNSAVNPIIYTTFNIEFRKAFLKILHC

SMILES	inhibition
CCOC(=O)c1c(S(=O)(=O)N2CCCC(C(=O)Nc3ncccc3C)C2)c(C)n(C)c1C (stereo not drawn)	-6.06%
COc1ccc(CCCc2nnc(SCC(=O)Nc3ccccc3F)o2)cc1C	16.4%
COc1cc(C(=O)NCc2ccc(OCCN(C)C)cc2)cc(OC)c1OC	active: 72.2%
Cc1ccc(-n2ncc3c(N(CCO)Cc4ccccc4)ncnc32)cc1	20.8%
COc1cccc(N(Cc2nnc3n2CCCCC3)C(=O)Nc2cccc(Cl)c2)c1	-3.07%
CCOCCCNC(=O)CN1C(=O)c2c(c3ccccc3n2C)C1c1ccc(OC)cc1 (stereo not drawn)	7.01%
O=C(Cc1csc2nc(-c3ccccc3)cn12)NCc1ccc(F)cc1	-8.63%
CCOc1ccccc1NC(=O)N1CCCn2nc(C)cc21	4.54%
Cc1c(OCC(=O)N[C@@H](CSCc2ccccc2)C(=O)O)ccc2c3c(c(=O)oc12)CCC3	active: 30.7%
Cc1ccc(CNC(=O)Cn2c(=O)n(-c3ccccc3)c(=O)c3c2c2cc(C)ccc2n3C)cc1	-8.11%
CCCCN(C)CCNC(=O)Cn1ncc2c([nH]c3ccccc32)c1=O	12.3%
Cc1ccc(NC(=O)CCSc2nc(-c3ccc4c(c3)OCO4)cc(C(F)(F)F)n2)cc1	1.06%
COc1ccc(C2/C(=C(/O)c3ccc(S(=O)(=O)N4CCOCC4)cc3)C(=O)C(=O)N2CCN2CCOCC2)cc1 (stereo not drawn)	active: 40.1%
CCOC(=O)CCN(c1ccccc1)S(=O)(=O)c1ccc2[nH]c(=O)ccc2c1	-0.281%
O=C(O)CCc1ccc(-c2ccccc2)n1-c1cccc(Br)c1	4.86%
COc1cc(/C=C/c2nc(C#N)c(NC(C)c3ccccc3)o2)cc(OC)c1OC (stereo not drawn)	9.6%
CN(Cc1ccccc1)C(=O)c1cc2c(s1)-c1ccc(Cl)cc1SC2	-3.29%
O=C(CCCCn1c(=O)c2ccccc2n(CC(=O)Nc2cccc(F)c2)c1=O)NCc1ccccc1Cl	-3.55%
CCOc1ccc(CNC(=O)Cn2c(=O)c3cccn3c3ccc(F)cc32)cc1OC	18.1%
Clc1ccc(CCNC(c2cccc(Cl)c2)c2nnc(-c3ccccc3)o2)cc1 (stereo not drawn)	11.4%
Cn1cc(S(=O)(=O)N2CCCCCC2)cc1C(=O)N1CCN(c2ccc(Cl)cc2)CC1	-19.3%
CCOC(=O)c1cc(-c2ccccc2)n(CCCC(=O)Nc2ccc(C)c(C)c2)c1C	24.4%
Cn1c(=O)c2c(ncn2CC(=O)Nc2cc(Cl)cc(Cl)c2)n(C)c1=O	-2.55%
Cc1nn(C)c2c1c(C(F)(F)F)cc(=O)n2C(C)C(=O)N1CCN(c2ccccc2)CC1 (stereo not drawn)	9.74%
CCOC(=O)c1c(C)oc2ncnc(N3CCN(c4cccc(Cl)c4)CC3)c12	8.4%

SMILES	inhibition
CCOC(=O)c1c(C)[nH]c(C)c1S(=O)(=O)N1CCN(c2ccccc2OC)CC1	-3.19%
CC1=C(C(=O)Nc2ccccc2)C(c2ccccc2Cl)n2ncc(C(=O)Nc3cccc(C)c3)c2N1 (stereo not drawn)	3.01%
COc1ccc(Cl)cc1NC(=O)CSc1nc2ccccc2nc1N1CCCCC1	5.44%
COc1ccc(CCC(=O)NCc2nc3cccnc3n2Cc2ccc(OC)cc2)cc1	20.2%
CCOC(=O)c1c(NC(=O)CS(=O)(=O)c2ccc(Cl)cc2)sc2c1CCCC2	-1.89%
Cc1ccc(C)c(NC(=O)Cn2nnc(C(=O)NCc3ccco3)c2N)c1	15.3%
CNC(=O)C1CCN(C(=O)N2CC(C)Oc3ccc(C)cc32)CC1 (stereo not drawn)	-23%
COc1ccc(-c2cc(C(=O)OCC(=O)c3cccc(OC)c3)c3cccc(Cl)c3n2)cc1	-3.83%
COc1ccc(NC(=O)C2CCN(c3nc(-c4ccc(OC)c(OC)c4)no3)CC2)cc1Cl	7.42%
Cc1ccccc1CNC(=O)C1CCCN(c2nnc(-n3c(C)ccc3C)s2)C1 (stereo not drawn)	-1.67%
COc1ccccc1N(C)C(=O)Cn1c(=O)oc2cc(S(=O)(=O)N3CCCC3)ccc21	7.96%
CCc1c(C)nc2nncn2c1Nc1cccc(C)c1	-6.44%
COc1ccc(-c2nc(SCC(=O)Nc3cccc(C(C)=O)c3)n[nH]2)cc1	20.8%
Fc1ccc(-c2noc3ncnc(N4CCCCC4)c23)cc1	-3.23%
COc1ccc(Cc2nc3ccc(C(=O)NCc4cc(Br)ccc4OC)cc3o2)cc1	-2.3%
O=C(Cc1ccccc1)Nc1cc(-c2nc3cc(Cl)ccc3o2)ccc1Cl	-1.54%
N#Cc1ccccc1S(=O)(=O)N1CCC(Oc2ccc(-n3cnnn3)cc2)CC1	-0.507%
COc1ccc(C2CC(=O)c3cnc4c(-c5ccccc5)c(C)nn4c3C2)c(OC)c1 (stereo not drawn)	-12.2%
CCCCNC(=O)CCCn1c(=O)c2ccccc2n(Cc2ccc(Cl)cc2)c1=O	10.8%
COc1ccc2c(c1)c1c(c(=O)n(-c3ccc(OC)c(OC)c3)c(=O)n1Cc1ccc(C)cc1)n2C	2.39%
COc1ccccc1CNC(=O)CCCn1c(=O)c2cccn2c2ccccc21	3.64%
NS(=O)(=O)c1ccc(CNC(=O)CCSCCC(=O)NCc2ccc(S(N)(=O)=O)cc2)cc1	active: 32.9%
Cc1cc2c(cc1C)-n1c(-c3ccccc3)c3c(=O)n(C)c(=O)n(C)c3c1C(c1ccco1)N2 (stereo not drawn)	1.45%
CC(C)(C)OC(=O)N1CCC(c2c(C(=O)N3CCOCC3)cnn2-c2ccccc2Cl)CC1	-4.88%
CCc1ccc2oc(C(=O)Nc3cc(Cl)ccc3OC)cc(=O)c2c1	8.76%

SMILES	inhibition
Cc1c(C(=O)Nc2ccccc2)sc2nc(-c3cc4ccccc4oc3=O)[nH]c(=O)c12	-6.49%
O=C(Nc1ccc2nc(SCC(=O)N3CCCc4ccccc43)sc2c1)c1ccccc1F	18.8%
Cc1ccc(NC(=O)CCn2nc(-c3ccccc3)c3ccccc3c2=O)c(C)c1	-0.335%
Fc1ccc(Nc2nc(-c3cccc(Cl)c3)c3c(n2)-c2ccccc2OC3)cc1	7.93%
CCc1ccc(C2=C(C)C(N3CCC(C(=O)Nc4ccc(F)cc4)CC3)=NS2(=O)=O)cc1	-0.854%
O=C(Nc1cccc(C(=O)N2CCN(c3ccccc3)CC2)c1)c1nsc2ccccc12	-14.2%
Cc1cc2ccccc2n1CCNC(=O)c1ccccc1F	-2.41%
O=c1c2sc3ccccc3c2n(Cc2ccc(F)cc2)c(=O)n1Cc1ccco1	5.17%
CC(C)c1ccc(S(=O)(=O)c2nnn3c2nc(NCc2cccs2)c2sccc23)cc1	2.19%
O=C(NCC(c1ccc2c(c1)OCO2)N1CCN(c2ccccc2)CC1)C(=O)Nc1ccccc1 (stereo not drawn)	-25%
COc1ccc(C(=O)Nc2ccccc2)cc1S(=O)(=O)Nc1ccc(Br)cc1	4.86%
O=C(OCc1cc(=O)n2nc(C3CC3)sc2n1)c1ccc(NC(=O)c2ccccc2Cl)cc1	-3.83%
O=C1CC(N2CCC(C(=O)N3CCCCC3)CC2)C(=O)N1 (stereo not drawn)	active: 37.9%
CCOc1ccc(C2C(C(N)=O)=C(C)Nc3nc(-c4ccc(OC)cc4)nn32)cc1 (stereo not drawn)	-5.22%
COc1ccccc1Nc1nn2c(=O)c3ccc(C(=O)NC4CCC(C)CC4)cc3nc2s1 (stereo not drawn)	16.8%
COc1ccccc1C(=O)Nc1cccc(OCc2cc(=O)n3c4c(sc3n2)CCCC4)c1	13.1%
O=C(C1CCN(S(=O)(=O)c2ccc(Br)s2)CC1)N1CCN(c2ccc(F)cc2)CC1	7.78%
CNC(=O)C1CCC(Cn2c(=O)c3sccc3n(CC(=O)N3CCCC3)c2=O)CC1 (stereo not drawn)	13.2%
COc1cccc(CNc2ncnc3c2nnn3C)c1	-6.27%
COc1cccc(C2CC(=O)Nc3c2c(=O)[nH]c2ncnn32)c1OC (stereo not drawn)	-2.05%
Cc1cccc2cc(CN(C(=O)c3cccc(Cl)c3)c3ccccc3)c(=O)[nH]c12	-8.67%
CCN(C(=O)CSc1nc(-c2ccccc2)no1)c1cccc(C)c1	-18.8%
Cc1ccc2c(c1)cc(C(=O)NCc1ccc(F)cc1)n2C	3.18%
COc1ccccc1N1CCN(c2ccc(=O)n(CC(=O)O)n2)CC1	18.8%
COc1ccccc1OCC(=O)NCCS(=O)(=O)N1CCN(c2ccccc2)CC1	active: 62.1%

SMILES	inhibition
O=c1c2sc3ccccc3c2n(Cc2ccccc2F)c(=O)n1-c1ccccc1Cl	-4.35%
COc1cccc(CNC(=O)CSc2nc3ccccc3nc2Cc2ccccc2)c1	2.13%
Cc1ccccc1NC(=O)c1c(C)oc2ccc(O)c(CN3CCCC(C)C3)c12 (stereo not drawn)	6.18%
COc1cc2c(cc1OC)C(c1ccc(F)cc1)N(c1ccccc1)C(=O)C2 (stereo not drawn)	-0.848%
CCN(CC)S(=O)(=O)c1ccc2nc(NC(=O)c3ccccc3OC)sc2c1	26.5%
Cc1nnc(N2CCC(C(=O)NCc3ccc(F)cc3)CC2)c2nn(-c3ccc(Cl)cc3)c(C)c12	1.55%
COc1ccc(CN2CCN(c3ncccn3)CC2)c(C)c1C	active: 93.4%
OCCNCCOc1ccc(Cl)c(Cl)c1	active: 33.4%
C=CCOc1ccc(Br)cc1CNCC	active: 67.4%
Cc1cc(Br)ccc1NC(=O)COc1cc(=O)n(C)c2ccccc12	-7.03%
COc1ccccc1NC(=O)c1ccc2[nH]c(C)cc(=O)c2c1	8.53%
CCCCOc1ccc(C(=O)NCCS(=O)(=O)N2CCN(c3ccccc3OC)CC2)cc1	-19.6%
Cc1ccc2oc(-c3cc(NC(=O)Cc4ccccc4)ccc3Cl)nc2c1	11.9%
O=C(COc1ccc(Cl)cc1)Nc1ccc(O)c(-c2nc3ccccc3s2)c1	0.806%
O=C(NC1CC(=O)N(c2ccc(F)cc2)C1)c1ccc(S(=O)(=O)N2CCCC2)cc1 (stereo not drawn)	7.93%
CCN(C(=O)CSc1nc2ccccc2nc1Cc1cccc(OC)c1)c1cccc(C)c1	9.21%
Cc1cc(C)n2nnnc2n1	active: 38.3%
O=C(Nc1cccnc1)c1ccc(CN2CCc3ccccc3C2)cc1	active: 65.8%
Cc1ccc(NC(=O)Nc2nc3c(s2)CCCCCC3)cc1C	7.37%
CC(=O)Nc1c(C)nn(-c2ccccc2)c1N1CCC(C(=O)Nc2ccc(C)cc2Cl)CC1	0.932%
CCCc1nc2nc(C)c(NS(=O)(=O)c3ccc(C)c(C)c3)c(=O)n2[nH]1	-12.1%
C/C(=N\NC(=O)CN1CCCCC1)c1ccccc1O	active: 84.6%
COc1cccc(NC(=O)CSc2nnc3[nH]c(=O)cc(-c4ccccc4)n23)c1	-17.7%

From PubChem BioAssay AID485344 (National Center for Advancing Translational Sciences (NCATS), 2010)
